Results: PubChem BioAssay AID1434 (Sanford-Burnham Center for Chemical Genomics, 2008)
The other results are listed elsewhere or left out. Shown are side measurements of this screen, not its main read-out; they come without a call. Compounds called inactive in the main read-out are mostly missing here.

target: Runt-related transcription factor 1 (Homo sapiens) + Core-binding factor subunit beta (Homo sapiens) (UniProt Q01196+Q13951); experiment: inhibitors of RUNX1 Runt–CBFb-SMMHC binding, primary screen, biochemical, FRET, Cerulean-Runt, Venus-CBFb-SMMHC, uHTS (AID 1434); details: Cerulean-Runt/Venus-CBFb-SMMHC FRET ratio 530/480, 1 h; retest duplicate average; at 20 µM; stronger effect = higher value;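 also: 0% = DMSO wells and 100% = wells with excess untagged CBFb-SMMHC; inhibitors lower the FRET ratio by blocking Runt binding to CBFb-SMMHC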
Chain of UniProt Q01196 (Q01196 whole entry, looked up): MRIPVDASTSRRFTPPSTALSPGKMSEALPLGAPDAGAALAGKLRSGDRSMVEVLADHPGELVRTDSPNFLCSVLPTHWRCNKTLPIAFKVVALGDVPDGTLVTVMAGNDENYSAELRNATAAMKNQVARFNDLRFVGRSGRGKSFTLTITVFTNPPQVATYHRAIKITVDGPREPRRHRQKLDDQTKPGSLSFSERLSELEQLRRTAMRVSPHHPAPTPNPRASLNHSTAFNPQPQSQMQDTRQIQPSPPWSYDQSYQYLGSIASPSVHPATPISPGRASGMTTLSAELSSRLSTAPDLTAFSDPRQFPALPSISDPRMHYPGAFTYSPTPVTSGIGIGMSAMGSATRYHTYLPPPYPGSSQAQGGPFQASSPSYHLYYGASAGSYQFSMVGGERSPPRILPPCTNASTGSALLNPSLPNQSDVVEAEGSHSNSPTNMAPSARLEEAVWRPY
Chain of UniProt Q01196 (Q13951 whole entry, looked up): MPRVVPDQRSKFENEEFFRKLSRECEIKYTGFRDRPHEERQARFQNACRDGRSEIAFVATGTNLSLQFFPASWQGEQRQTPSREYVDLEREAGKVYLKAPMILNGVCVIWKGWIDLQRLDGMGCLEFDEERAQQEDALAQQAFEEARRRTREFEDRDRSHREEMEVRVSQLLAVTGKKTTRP

| SMILES | inhibition [%] |
| --- | --- |
| c1ccc(-c2ccc(-c3nccc4ccccc34)[nH]2)cc1 | 108 |
| CCOC(=O)c1c(NC(=O)CSc2nnc(C)s2)sc2c1CCN(C)C2 | 164 |
| Cc1ccc2nc(NCCCN3CCOCC3)c(C=NCCCN3CCOCC3)c(=O)n2c1 | 114 |
| CCOC(=O)CNS(=O)(=O)c1ccc2c3c(cccc13)C(=O)N2CC | 63.7 |
| CCCCCCc1cc2cc(C(=O)OCC)c(=O)oc2cc1O | 70.6 |
| Cc1ccc(C2C3=C(CCCC3=O)Nc3[nH]c(=S)[nH]c(=O)c32)cc1 (centres undefined) | 54.3 |
| COc1ccc(CCNc2c3ccccc3nc3ccccc23)cc1OC | 161 |
| Nc1ccc2[nH]ncc2c1 | 58.2 |
| Nc1c(C(=O)NCCN2CCOCC2)c2nc3ccccc3nc2n1-c1ccccc1 | 114 |
| COc1cc([C@@H]2[C@H]3CN(C)CC=C3C(C#N)=C(N)C2(C#N)C#N)cc2c1OCO2 | 76.9 |
| COc1ccc2nc(Nc3sc4c(c3C(N)=O)CCCC4)sc2c1 | 76.9 |
| CCCCCOC(=O)c1c(N)n(CCOC)c2nc3ccccc3nc12 | 111 |
| COc1ccc2o/c(=N\O)c(C(=O)Nc3ccc(C)cc3)cc2c1 | 72.1 |
| N=c1c(C(=O)NCc2ccccc2)cc2c(=O)n3ccccc3nc2n1Cc1ccco1 | 72.9 |
| COc1cccc(C2C(C#N)=C(N)Oc3cc(N)ccc32)c1OC (centres undefined) | 111 |
| COc1cc2cc(C(=O)N3CCN(Cc4ccc5c(c4)OCO5)CC3)c(=O)oc2cc1OC | 62.4 |
| COCCNC(=O)/C(C#N)=C/c1c(N2CC(C)OC(C)C2)nc2ccccn2c1=O (centres undefined) | 71.5 |
| COc1ccc2cc(-c3cc(C(=O)OCC(=O)NC4CCS(=O)(=O)C4)c4ccccc4n3)ccc2c1 (centres undefined) | 71.5 |
| CCOc1ccc(C2C(C(=O)OC)=CN(CCOC)C=C2C(=O)OC)cc1 | 165 |
| CCC(=O)Nc1c(S(=O)(=O)c2ccccc2)c2nc3ccccc3nc2n1C(C)c1ccccc1 (centres undefined) | 89.9 |
| CCCCCCc1cc2cc(-c3nnc(-c4ccccc4OC)o3)c(=O)oc2cc1O | 73.3 |
| C=CCn1c(=N)c(C(=O)OC)cc2c(=O)n3cccc(C)c3nc21 | 72.9 |
| CCCS(=O)(=O)c1c(S(=O)(=O)CCC)c2cc(-c3ccncc3)ccn2c1C(=O)OC | 99.9 |
| CCC(=O)Oc1ccc2c(c1)O/C(=C\c1ccco1)C2=O | 66.8 |
| CCOC(=O)c1c(/N=C/c2cc(C)ccc2O)sc2c1CCN(C)C2 | 69.1 |
| N#CC1=C(N)Oc2cc(N)ccc2C1c1ccc(F)cc1 (centres undefined) | 98.9 |
| Cc1ccc(C(=O)CSc2ncnc3ccccc23)o1 | 103 |
| Cc1ccc(NC(=S)C2=C(O)c3sccc3N(C)S2(=O)=O)cc1 | 112 |
| O=C(O)C(=O)/C(=C\c1ccccc1)c1ccc2ccccc2n1 | 50.7 |
